The list shows a part of the results. Sequences were assembled here from the parent chain. Values near 0.05 are background.
B1: TEV protease; numbered along this chain (parent)
chain: MGESLFKGPRDYNPISSSICHLTNESDGHTTSLYGIGFGPFIITNKHLFRRNNGTLVVQSLHGVFKVKDTTTLQQHLVDGRDMIIIRMPKDFPPFPQKLKFREPQREERICLVTTNFQTKSMSSMVSDTSCTFPSGDGIFWKHWIQTKDGQCGSPLVSTRDGFIVGIHSASNFTNTNNYFTSVPKNFMELLTNQEAQQWVSGWRLNADSVLWGGHKVFMVKPEEPFQPVKEATQL

Variants of: B1
Assay: raw area under fraction-flipped curve 0-4 h after induction (AUC4h, not background-subtracted), DNA-recorder readout of cleavage of the substrate (dimensionless); higher = more cleavage of the substrate by the protease variant
Details: temperature: 34 °C; time window: 0-4 h after rhamnose induction
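Also: Bxb1 expression induced with 0.2% (w/v) L-rhamnose at OD600 near 0.5, cultures sampled hourly, flipped fraction per protease–substrate barcode pair counted by paired-end Illumina sequencing.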

Variant | area with substrate ENLCFQS | area with substrate ENLEFQS | area with substrate ENLFFQS | area with substrate ENLGFQS | area with substrate ENLHFQS | area with substrate ENLKFQS | area with substrate ENLLFQS | area with substrate ENLNFQS | area with substrate ENLPFQS | area with substrate ENLQFQS | area with substrate ENLSFQS | area with substrate ENLVFQS | area with substrate ENLDFQS | area with substrate ENLRFQS | area with substrate ENLIFQS | area with substrate ENLWFQS | area with substrate ENLMFQS | area with substrate ENLTFQS
D161N | 0.0648 | 0.0709 | 0.0774 | 0.0666 | 0.0534 | 0.0534 | 0.0657 | 0.0425 | 0.0247 | 0.0574 | 0.0544 | 0.055 |  |  |  |  |  | 
G162E | 0.073 | 0.0574 | 0.105 |  | 0.0725 | 0.0805 |  | 0.0567 | 0.062 | 0.0754 |  | 0.0897 | 0.0622 | 0.0635 |  |  |  | 
G162Y | 0.0751 | 0.056 | 0.0696 |  | 0.0571 | 0.0662 | 0.071 | 0.0608 | 0.0475 |  | 0.047 | 0.0111 |  | 0.0701 | 0.0534 |  |  | 
I167L | 0.071 |  | 0.0828 | 0.0851 | 0.0666 |  | 0.0692 | 0.0591 | 0.0569 | 0.0392 | 0.0522 |  | 0.0648 | 0.0646 |  | 0.0599 |  | 
I167Q | 0.0748 | 0.0776 | 0.0544 |  | 0.0389 | 0.0576 |  | 0.0521 | 0.0584 | 0.0618 | 0.0648 |  | 0.0501 |  | 0.0663 |  |  | 
S169H | 0.0428 |  | 0.0931 |  | 0.0692 |  | 0.0547 | 0.0393 | 0.055 | 0.0688 | 0.0623 |  | 0.0669 | 0.0674 | 0.0632 | 0.0459 |  | 
A170N | 0.0325 | 0.0664 | 0.055 |  | 0.0291 | 0.0647 |  | 0.0489 |  | 0.0561 |  |  | 0.0711 |  | 0.0653 |  |  | 
S171W | 0.0708 |  |  |  |  | 0.0687 | 0.0573 |  |  |  |  | 0.0559 |  |  |  |  |  | 
N178P | 0.0479 |  | 0.0773 |  |  |  |  | 0.064 | 0.028 |  |  |  | 0.0751 | 0.0724 |  | 0.0479 |  | 
T181W | 0.0518 |  | 0.0653 |  | 0.0557 |  |  | 0.0648 |  |  |  |  |  |  | 0.055 | 0.0606 |  | 
M188K | 0.0765 | 0.0692 | 0.0808 |  |  |  | 0.0543 | 0.0607 | 0.061 |  |  |  | 0.0631 |  |  | 0.062 | 0.058 | 0.0802
M188V | 0.0433 | 0.0599 | 0.0624 |  |  | 0.0761 | 0.0938 | 0.0637 | 0.0696 | 0.0724 |  | 0.0814 | 0.0412 |  |  | 0.0494 | 0.0717 | 
L190I | 0.0713 | 0.0702 | 0.0955 |  | 0.0685 | 0.0887 | 0.0633 | 0.0558 | 0.0694 |  |  | 0.0892 | 0.0484 |  |  | 0.0725 |  | 
L191R | 0.0515 | 0.0605 | 0.0504 |  | 0.0565 | 0.0648 |  | 0.0514 | 0.0643 | 0.0389 | 0.053 |  | 0.0423 | 0.0502 | 0.0634 | 0.0503 | 0.071 | 
E195I | 0.0559 |  | 0.0863 | 0.0688 | 0.0696 |  | 0.0577 | 0.0562 | 0.0736 |  |  | 0.0658 | 0.058 |  |  | 0.062 |  | 
E195W | 0.0878 |  | 0.0748 |  | 0.0897 | 0.0834 | 0.0585 | 0.0791 |  | 0.0682 | 0.0621 |  | 0.0459 |  | 0.072 | 0.0629 |  | 
Q197H | 0.109 | 0.0679 |  |  |  | 0.0743 | 0.0735 | 0.0559 |  |  | 0.0544 |  | 0.0575 | 0.0806 |  |  | 0.0458 | 

Variant | area with substrate ENLCFQS | area with substrate ENLEFQS | area with substrate ENLFFQS | area with substrate ENLGFQS | area with substrate ENLHFQS | area with substrate ENLKFQS | area with substrate ENLLFQS | area with substrate ENLNFQS | area with substrate ENLPFQS | area with substrate ENLQFQS | area with substrate ENLSFQS | area with substrate ENLVFQS | area with substrate ENLDFQS | area with substrate ENLRFQS | area with substrate ENLIFQS | area with substrate ENLWFQS | area with substrate ENLMFQS | area with substrate ENLTFQS
W203F | 0.0688 | 0.0618 | 0.0858 |  | 0.0523 | 0.0983 |  |  | 0.0505 |  | 0.0603 |  | 0.0603 |  |  | 0.102 |  | 
N206V | 0.0814 |  | 0.0617 |  | 0.0529 |  | 0.0501 | 0.059 |  | 0.072 |  |  | 0.0602 |  |  | 0.0624 |  | 
N206W | 0.061 | 0.0771 | 0.0739 |  | 0.0613 | 0.0696 |  | 0.054 |  | 0.0671 | 0.0675 | 0.0682 |  | 0.0644 |  |  |  | 0.0594
S209M | 0.0746 | 0.0553 | 0.085 |  | 0.0614 | 0.096 | 0.0788 |  | 0.0636 | 0.0695 | 0.0546 |  | 0.0553 | 0.0802 | 0.0777 |  | 0.0613 | 
G214H | 0.0315 |  | 0.0539 |  |  |  | 0.045 |  | 0.0555 |  |  | 0.0598 |  |  | 0.0614 |  |  | 
G214I | 0.063 | 0.0542 |  |  | 0.0748 |  | 0.0534 | 0.0619 |  |  |  | 0.0771 |  |  |  | 0.068 | 0.08 | 
G214T | 0.0656 |  |  |  |  | 0.0775 |  |  | 0.0455 |  |  |  |  |  |  |  |  | 
H215Y | 0.0607 | 0.0444 | 0.0647 |  | 0.0634 | 0.0499 |  | 0.0662 |  | 0.0684 |  | 0.0564 | 0.0566 | 0.0691 | 0.0578 |  |  | 
F218E | 0.0631 |  | 0.0749 |  | 0.0605 | 0.067 | 0.0519 | 0.0663 | 0.0591 | 0.0494 | 0.0769 | 0.0624 | 0.0616 | 0.0661 | 0.0607 | 0.0608 |  | 
K221P | 0.0746 | 0.063 | 0.0732 | 0.0486 | 0.0597 | 0.112 | 0.0814 | 0.0652 |  | 0.0692 | 0.0573 | 0.065 | 0.0548 | 0.0845 | 0.0776 |  |  | 
V229N | 0.0755 | 0.0819 | 0.11 |  | 0.0783 | 0.0955 |  | 0.0742 | 0.0521 | 0.0664 | 0.0516 |  | 0.0511 | 0.0709 | 0.0747 | 0.0907 |  | 
V229W | 0.0695 |  |  | 0.0737 | 0.058 | 0.0977 |  | 0.0818 | 0.0496 | 0.0772 | 0.0606 | 0.0937 | 0.0665 | 0.0755 | 0.131 |  | 0.0539 | 
E231S | 0.0681 | 0.116 | 0.0742 |  | 0.0846 |  | 0.053 | 0.0639 | 0.055 |  |  |  | 0.073 | 0.0633 |  | 0.0402 |  | 
L5I |  |  | 0.0807 |  |  |  | 0.0898 |  | 0.0608 | 0.137 |  |  | 0.0452 |  |  |  | 0.0708 | 0.0728
P9T |  |  | 0.0715 |  |  |  |  | 0.0857 |  |  | 0.0568 |  | 0.0592 |  |  |  |  | 
I15R |  | 0.0527 | 0.0983 |  |  | 0.086 |  |  |  |  |  |  | 0.0352 | 0.0705 |  | 0.029 |  | 
D27H |  | 0.0458 | 0.0828 |  | 0.0327 | 0.0181 |  |  |  | 0.0815 |  |  | 0.0595 | 0.0661 | 0.0566 |  |  | 

— the supplement of paper PMC12217912
